Data: PubChem BioAssay AID588453 (National Center for Advancing Translational Sciences (NCATS), 2011)
Among all 390,000 compounds or so, about 4,000 (1%) were called active. This list was built around the results that the source calls inconclusive (neither active nor inactive); the mix of calls is not that of the screen. Calls follow the shape of the dose curve; as a rule, active = well fitted inhibition curve with a large enough effect; inconclusive = small, poorly fitted or top-dose-only effect; inactive = no such curve, though single readings can be large or run the other way. Potencies beside an inconclusive call are fits to weak or partial responses and may not hold up.

Target: Thioredoxin reductase 1, cytoplasmic (Rattus norvegicus) (UniProt O89049)
Assay: qHTS Assay for Inhibitors of Mammalian Selenoprotein Thioredoxin Reductase 1 (TrxR1): qHTS; also: nearly all actives have a fitted effect of over 65% in size
Conditions: recombinant rTrxR1, NADPH fluorescence consumption, selenite substrate; series mostly up to 114 µM
Outline: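 Rat TrxR1 (90 nM in the dispensed reagent) was pre-reduced with 400 uM NADPH for 5 min at room temperature, then incubated with compound for 15 min. After 400 uM selenite was added, NADPH fluorescence (Ex 340/Em 450 nm) was followed for 8 min.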
Potency is read from the fitted curve at half-maximal effect; tags tell the direction and shape of the fitted curve.

Sequence of UniProt O89049 (O89049 whole entry, looked up): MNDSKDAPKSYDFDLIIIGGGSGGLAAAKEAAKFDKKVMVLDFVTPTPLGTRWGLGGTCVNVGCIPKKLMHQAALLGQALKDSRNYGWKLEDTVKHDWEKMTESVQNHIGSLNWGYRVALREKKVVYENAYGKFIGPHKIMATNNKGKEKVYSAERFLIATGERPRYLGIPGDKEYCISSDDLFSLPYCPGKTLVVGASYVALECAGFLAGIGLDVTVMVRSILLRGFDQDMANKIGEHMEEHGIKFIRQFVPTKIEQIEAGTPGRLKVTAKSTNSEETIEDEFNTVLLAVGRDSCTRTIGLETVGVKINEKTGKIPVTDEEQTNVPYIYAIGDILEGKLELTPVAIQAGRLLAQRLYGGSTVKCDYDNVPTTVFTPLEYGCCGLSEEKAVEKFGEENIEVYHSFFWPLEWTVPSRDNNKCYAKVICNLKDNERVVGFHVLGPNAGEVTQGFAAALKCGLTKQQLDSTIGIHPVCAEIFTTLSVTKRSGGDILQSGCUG

| SMILES | Potency |
| --- | --- |
| O=C(NNC1CC(=O)N(c2ccc(Br)cc2)C1=O)c1cccs1 (stereo not drawn) | inactive |
| CCOC(=O)N1CCN(CC(=O)Nc2c(C(=O)OC)[nH]c3ccc(Cl)cc23)CC1 | inconclusive: 89.1 µM [inhibitor, partial curve, poor fit] |
| C/C=C\C=C\C(=O)N1CC2(CC(c3cccc(NC(=O)/C(C)=C\C)c3)=NO2)C[C@H]1C(N)=O (stereo partly drawn) | active: 50.1 µM |
| CCOC(=O)C1(Cc2cccc(OC)c2)CCCN(C(=O)c2ccc(OC)o2)C1 (stereo not drawn) | active: 50.1 µM |
| CCc1ccc(S(=O)(=O)Nc2cc(SCC(=O)O)c(O)c3ccccc23)cc1 | inactive |
| Cc1cc(NC(c2cccnc2)c2c(C)[nH]c3ccccc23)no1 (stereo not drawn) | inconclusive: 6.31 µM [inhibitor, partial curve, poor fit] |
| COc1ccc(NC(=O)CSc2nnc(-c3ccco3)c(-c3ccco3)n2)cc1OC | inconclusive: 50.1 µM [inhibitor, partial curve, poor fit] |
| COc1ccc(CNC(=O)c2c(-c3cc(Cl)c(OC)c(Cl)c3)noc2C)cc1 | inconclusive: 44.7 µM [inhibitor, partial curve] |
| Cc1ccc2oc(-c3ccco3)cc(=O)c2c1 | inconclusive: 35.5 µM [inhibitor, single point] |
| Cc1cc(NC(=O)CCCS(=O)(=O)c2nc(-c3cccs3)cc(C(F)(F)F)n2)no1 | inconclusive: 7.94 µM [inhibitor, partial curve, poor fit] |
| Cc1sc2c(c1C)CN(C(C)(C)C)CN2C(=O)c1ccccc1 | inconclusive: 56.2 µM [inhibitor, partial curve, poor fit] |
| Nc1ccccc1N=Cc1ccc(-c2cccc(Cl)c2)o1 | inconclusive: 25.1 µM [inhibitor, single point] |
| Cc1ccc2nc(N3C(=O)C(O)=C(C(=O)c4ccc(C)o4)C3c3ccc(O)cc3)sc2c1 (stereo not drawn) | inconclusive: 79.4 µM [inhibitor, single point] |
| COc1cccc(/C=N/N2CCOCC2)c1O | inactive |
| COc1cccc(NC(=S)NC(=O)c2cncc(Br)c2)c1 | inconclusive: 10 µM [inhibitor, full curve] |
| Cc1cc(-c2nnc(-c3ccccc3)c(-c3ccccc3)n2)c(C)o1 | active: 31.6 µM |
| Cc1cccnc1NC(=O)CCc1nnc2ccc(NCc3ccco3)nn12 | inconclusive: 79.4 µM [inhibitor, single point] |
| Nc1cc(-c2ccncc2)c[nH]c1=O | inconclusive: 50.1 µM [inhibitor, partial curve, poor fit] |
| O=C1c2oc3ccc(Cl)cc3c(=O)c2C(c2ccccn2)N1CCCN1CCOCC1 (stereo not drawn) | inconclusive: 20 µM [inhibitor, partial curve, poor fit] |
| Cc1ccc(-c2c(C(=O)N3CCN(c4ccc(F)cc4)CC3)oc(=O)c3ccccc23)cc1 | inactive |
| CCOc1ccc(C(=O)/C=C/c2cn(CC(O)CN3CCc4ccccc43)c3ccccc23)cc1 (stereo not drawn) | inactive |
| O=C(O)CCn1cc(/C=C2/NC(=S)N(c3ccccc3)C2=O)c(-c2ccccc2)n1 | inactive |
| Cc1ccc2cc(COC(=O)c3ccco3)c(=O)[nH]c2c1 | inconclusive: 79.4 µM [inhibitor, single point] |

| SMILES | Potency |
| --- | --- |
| CCOC(=O)C(NC(=O)c1ccc(F)cc1)(Nc1sc2c(c1C(N)=O)CCC2)C(F)(F)F (stereo not drawn) | inconclusive: 39.8 µM [inhibitor, single point] |
| O=C1N/C(=N\N=C\c2cccnc2)SC1Cc1ccc(SC(F)F)cc1 (stereo not drawn) | inactive |
| CCc1ccccc1NC(=S)N(CCN1CCCCC1)Cc1ccco1 | inactive |
| Cn1nccc1/C=C(/C#N)S(=O)(=O)c1ccccc1 | inconclusive: 56.2 µM [inhibitor, single point] |
| CCN(CC)C(=O)Cn1cc(C(=O)C(=O)NCCCN2CCOCC2)c2ccccc21 | inconclusive: 56.2 µM [inhibitor, single point] |
| COc1ccccc1NC(=O)Cc1csc(NC(=S)Nc2ccccc2)n1 | inconclusive: 0.891 µM [inhibitor, full curve, poor fit] |
| CC(CNC(=O)c1ccc(Cn2c(=O)c3cccn3c3cccnc32)cc1)c1ccccc1 (stereo not drawn) | inactive |
| O=C(CN(CCc1ccccc1)C(=O)CN1C(=O)COc2ccccc21)NCc1ccco1 | inconclusive: 25.1 µM [inhibitor, full curve] |
| COc1cc(OC)cc(C(=O)N/N=C(\C)CC(=O)Nc2ccccn2)c1 | inactive |
| CCCNC(=O)c1ccccc1SCc1c(C)noc1C | inactive |
| COc1ccccc1C(=O)NCC(=O)N=Nc1c(O)n(C(C)C)c2ccccc12 | inactive |
| COc1ccc(-n2c(O)c(Cc3ccccc3)c(=O)n3nc(-c4ccccc4)c(=O)cc23)cc1 | inconclusive: 44.7 µM [inhibitor, partial curve, poor fit] |
| CCN1CCN(C(=S)Nc2ccc3nc4n(c(=O)c3c2)CCCCC4)CC1 | inconclusive: 79.4 µM [inhibitor, single point] |
| COc1ccccc1N1CCN(CC(=O)c2ccc3ccn(C(C)=O)c3c2)CC1 | inconclusive: 22.4 µM [inhibitor, single point] |
| Nc1c(C(=O)NCc2ccco2)c2nc3ccccc3nc2n1CCc1ccc(F)cc1 | inconclusive: 8.91 µM [inhibitor, partial curve, poor fit] |
| Cc1cccc(N=C2NC(=O)/C(=C/C=C/c3ccco3)S2)c1 | inconclusive: 56.2 µM [inhibitor, partial curve, poor fit] |
| O=C(c1cc(-c2ccco2)on1)N1CCCc2ccccc21 | inconclusive: 50.1 µM [inhibitor, partial curve, poor fit] |
| CC/C(=N\NC(=O)CSCc1ccc(Cl)cc1)c1ccc2c(c1)OCCO2 | inactive |
| COc1ccc(-c2nn3c(-c4ccccc4C)nnc3c3ccccc23)cc1 | inactive |
| CC(C)c1nc2sc3c(SCC(=O)NCc4ccco4)ncnc3c2c2c1CCC2 | inconclusive: 100 µM [inhibitor, single point] |
| O=C(c1ccco1)N1CCN(CC(=O)N(C2CCCCC2)C2CCS(=O)(=O)C2)CC1 (stereo not drawn) | inconclusive: 79.4 µM [inhibitor, partial curve] |
| CCc1ccc(-c2nc(CS(=O)CC(=O)NCc3ccc4c(c3)OCO4)c(C)o2)cc1 (stereo not drawn) | inconclusive: 31.6 µM [inhibitor, full curve] |
| O=S(=O)(/C=C/C=C/S(=O)(=O)c1ccccc1)c1ccccc1 | active: 2 µM |

| SMILES | Potency |
| --- | --- |
| CCOC(=O)c1sc(NC(=O)c2ccncc2)c(C#N)c1C | inconclusive: 12.6 µM [inhibitor, full curve] |
| COc1ccc(OC)c2cc3ccccc3cc12 | inconclusive: 3.98 µM [inhibitor, full curve] |
| O=C(Nc1ccc(S(=O)(=O)Nc2ncccn2)cc1)c1ccccc1Cl | inconclusive: 89.1 µM [inhibitor, single point] |
| Cc1nc2scc(C)n2c(=O)c1S(=O)(=O)NC(C)c1ccccc1 (stereo not drawn) | inconclusive: 89.1 µM [inhibitor, single point] |
| O=C1c2ccccc2NC(c2ccc(Br)o2)N1O (stereo not drawn) | inconclusive: 15.8 µM [inhibitor, partial curve, poor fit] |
| O=C(NNc1ccccn1)C(=O)NNS(=O)(=O)c1ccc(Cl)cc1 | inconclusive: 89.1 µM [inhibitor, single point] |
| CC(=O)c1ccc(OCc2cc(C(=O)N3CCCCCCC3)no2)cc1 | inactive |
| CCCn1nc(NC(=O)c2ccco2)c2cc3ccccc3nc21 | inconclusive: 35.5 µM [inhibitor, full curve] |
| Cc1ccc(C)n1-c1cc(S(=O)(=O)N2CCOCC2)ccc1N1CCCC1 | inconclusive: 1.58 µM [inhibitor, full curve, poor fit] |
| S=C(NNc1ccnc2cc(Cl)ccc12)Nc1ccccc1Cl | inconclusive: 31.6 µM [inhibitor, single point] |
| COc1ccc(C2C(C(=O)c3ccco3)=C(O)C(=O)N2CCOCCO)cc1OC (stereo not drawn) | inconclusive: 17.8 µM [inhibitor, partial curve, poor fit] |
| COc1ccc(C(CNC(=O)COc2ccc(Br)cc2F)N2CCCC2)cc1 (stereo not drawn) | inactive |
| Cc1ccc(-c2cc(C(=O)N/N=C/C(Br)=C/c3ccccc3)n[nH]2)o1 | inactive |
| Cc1cc(NC(=O)c2cc(-c3cccs3)on2)nn1Cc1ccc(Cl)cc1 | inconclusive: 79.4 µM [inhibitor, partial curve, poor fit] |
| COc1cccc(CNC(=O)C2CCN(c3nnc(-n4c(C)ccc4C)s3)CC2)c1OC | inactive |
| Cc1ccccc1NC(=O)Cc1nc(-c2c[nH]c(C(=O)N3CCCC3)c2)cs1 | inconclusive: 79.4 µM [inhibitor, single point] |
| COc1ccc(-c2nc(CS(=O)CC(=O)N3CCc4ccccc4C3)c(C)o2)cc1 (stereo not drawn) | active: 7.94 µM |
| COc1cccc(C(=O)Nc2cccc(C(=O)NCC(C)C)c2)c1 | inactive |
| Cc1ccc(/C=C/C(=O)OCC(=O)NC(C)C)o1 | inconclusive: 20 µM [inhibitor, partial curve, poor fit] |
| O=C(C1=C(O)C(=O)N(CCN2CCOCC2)C1c1cccnc1)c1cc2ccccc2o1 (stereo not drawn) | inconclusive: 50.1 µM [inhibitor, partial curve, poor fit] |
| C/C(=C\C(=O)c1ccc(Br)cc1)N1CCCCC1 | inconclusive: 28.2 µM [inhibitor, partial curve] |
| Cc1cc(I)ccc1Nc1nc(NCCN2CCOCC2)nc(N2CCOCC2)n1 | inconclusive: 50.1 µM [inhibitor, partial curve, poor fit] |
